Data published in the supplement of paper PMC12217912.
Some of the results follow. Sequences were assembled here from the parent chain. Inactive controls read about 0.05.

B1: TEV protease; numbered along this chain (parent)
chain: MGESLFKGPRDYNPISSSICHLTNESDGHTTSLYGIGFGPFIITNKHLFRRNNGTLVVQSLHGVFKVKDTTTLQQHLVDGRDMIIIRMPKDFPPFPQKLKFREPQREERICLVTTNFQTKSMSSMVSDTSCTFPSGDGIFWKHWIQTKDGQCGSPLVSTRDGFIVGIHSASNFTNTNNYFTSVPKNFMELLTNQEAQQWVSGWRLNADSVLWGGHKVFMVKPEEPFQPVKEATQL

Variants of: B1
Assay: raw area under fraction-flipped curve 0-4 h after induction (AUC4h, not background-subtracted), DNA-recorder readout of cleavage of the substrate (dimensionless); higher = more cleavage of the substrate by the protease variant
Conditions: temperature: 34 °C; time window: 0-4 h after rhamnose induction
Description: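 In vivo DNA recorder in E. coli TOP10(DE3) ΔrhaA at 34 °C. Each TEVp single-site mutant (parent TEVp 0) is paired with a single-site variant of the 7-mer TEVs (canonical ENLYFQ|S). The substrate sits between flexible linkers in a Bxb1-sfGFP-TEVs-SsrA fusion, so cleavage stabilises Bxb1 and speeds flipping of a recombination array, read by NGS. The value is the raw area under the fraction-flipped curve over 0-4 h after rhamnose induction (AUC4h), with ≥20 reads per time point. It is not background-subtracted; inactive controls average about 0.047.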
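Further: Bxb1 expression induced with 0.2% (w/v) L-rhamnose at OD600 near 0.5, cultures sampled hourly, flipped fraction per protease–substrate barcode pair counted by paired-end Illumina sequencing.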

Row | Variant | area with substrate ANLYFQS | area with substrate DNLYFQS | area with substrate FNLYFQS | area with substrate GNLYFQS | area with substrate HNLYFQS | area with substrate INLYFQS | area with substrate KNLYFQS | area with substrate LNLYFQS | area with substrate NNLYFQS | area with substrate PNLYFQS | area with substrate QNLYFQS | area with substrate SNLYFQS | area with substrate TNLYFQS | area with substrate VNLYFQS | area with substrate WNLYFQS | area with substrate YNLYFQS | area with substrate MNLYFQS | area with substrate CNLYFQS | area with substrate RNLYFQS
1 | S135Y | 0.0589 | 0.0633 | 0.0564 | 0.055 | 0.0646 | 0.0585 | 0.0619 | 0.0686 | 0.06 | 0.0578 | 0.056 | 0.0641 | 0.0515 | 0.0592 | 0.0594 | 0.0587 |  |  | 
2 | G54N | 0.0364 | 0.0637 | 0.045 | 0.0537 | 0.0828 | 0.0613 |  | 0.0515 |  | 0.0586 |  | 0.0335 | 0.0551 |  | 0.0536 | 0.0474 | 0.0443 |  | 
3 | S124M | 0.0756 |  |  | 0.0635 | 0.0668 |  | 0.0816 |  | 0.0589 | 0.0581 |  | 0.0591 | 0.0618 | 0.0927 |  | 0.0629 | 0.0601 | 0.0971 | 0.0445
4 | S124D | 0.0665 |  |  | 0.0633 |  | 0.0642 |  |  | 0.0696 | 0.0637 |  |  | 0.0658 |  | 0.0548 | 0.0615 | 0.0582 | 0.0684 | 
5 | K66I | 0.068 |  | 0.048 | 0.0566 | 0.0853 | 0.0774 |  |  | 0.0663 |  |  |  |  | 0.0705 | 0.0618 |  | 0.0787 | 0.0705 | 0.115
6 | I85V | 0.0709 |  | 0.0563 | 0.0786 | 0.0602 | 0.0858 | 0.0685 | 0.0617 | 0.0723 | 0.0599 |  | 0.0781 |  | 0.0513 | 0.0504 | 0.064 |  | 0.066 | 0.0659
7 | T176W | 0.0692 |  |  | 0.0539 | 0.0597 | 0.0539 |  |  |  |  |  | 0.0436 | 0.0517 |  | 0.0567 |  | 0.0485 |  | 0.0664
8 | A196M | 0.0659 |  | 0.0529 | 0.0736 | 0.0591 | 0.0723 | 0.0661 | 0.0681 | 0.0833 | 0.073 |  | 0.0629 | 0.0671 | 0.0533 | 0.048 | 0.0575 | 0.0701 | 0.0853 | 
9 | A196Q | 0.0728 | 0.0853 | 0.0708 | 0.0766 | 0.0496 | 0.0604 | 0.0707 | 0.0578 |  |  | 0.0608 | 0.0622 | 0.0406 | 0.0641 | 0.0746 | 0.0254 |  |  | 
10 | Q97S | 0.0663 |  |  | 0.06 | 0.0488 |  |  |  |  | 0.0763 |  |  | 0.0672 |  | 0.057 |  |  | 0.0692 | 
11 | V220A | 0.0746 | 0.0868 |  |  | 0.0729 | 0.0535 | 0.048 | 0.0754 | 0.0498 | 0.0643 |  | 0.0692 | 0.0727 | 0.0634 |  | 0.0661 |  |  | 
12 | K100S | 0.0747 | 0.0678 | 0.0644 | 0.104 | 0.0747 | 0.0622 | 0.0567 | 0.0737 |  |  |  |  | 0.0685 | 0.0574 |  | 0.0644 |  |  | 
13 | G28E | 0.0295 |  | 0.0497 |  | 0.0703 |  | 0.0694 |  |  | 0.0522 |  |  | 0.0736 |  | 0.057 |  |  | 0.0639 | 
14 | G28R | 0.0719 |  |  |  | 0.0517 | 0.0471 | 0.0651 | 0.0703 |  | 0.0638 |  | 0.0626 | 0.0638 |  | 0.0567 | 0.0649 | 0.0635 | 0.0594 | 
